# Over roughly 33,000 sequences, “E-score (-0.5 to 0.5)” has its median near -0.016; the highest 2% begin near 0.31. The list shows a part of the results.
# Target: Cst6 (UniProt P40535)
# Test: PBM E-score (8-mer binding enrichment) (E-score (-0.5 to 0.5)); higher = stronger / more preferred TF binding; most listed sequences are background and not binding sites
# Details: protein concentration: 200 nM; construct: GST-DNA-binding domain
# Method in brief: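 Each ungapped eight-base word and its reverse complement, pooled, received an E-score from the Universal PBM Analysis Suite. Underlying scans, normalised with masliner, recorded fluorescent anti-GST bound to GST-tagged yeast transcription factors. These were applied at about 100-200 nM to universal all-10-mer Agilent arrays double-stranded by primer extension.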
row,Sequence,PBM E-score
1,AATCAGTA,0.187
2,GCGATGTA,0.0729
3,AGTACCAG,-0.0881
4,AGTCTGTG,-0.0706
5,GGACGTGA,-0.0809
6,ACCTCTGC,-0.244
7,AATGCTTC,0.0171
8,GAGTAAAC,-0.0479
9,ATTACGTA,0.49
10,GTTAGAAC,0.0107
11,AGCTCGGG,-0.13
12,AATGAGAC,-0.272
13,TCAACCAA,0.0196
14,ACCTTGAT,0.0175
15,TGATGTAA,0.488
16,GTGGTTCA,0.0445
17,TAACCGGA,-0.0619
18,CACTACAC,-0.0303
19,CGTTTGGA,-0.0813
20,CTTTGGCC,-0.151
21,CGGGCATA,-0.156
22,AAGCTGCG,-0.226
23,CTCAAATC,-0.023
24,AACCAAAG,0.0508
25,CCACGGCC,-0.0591

row,Sequence,PBM E-score
1,CCAGGGGG,-0.363
2,CCGGGGTA,-0.26
3,AATGTGGG,-0.0891
4,ACTGGCCC,-0.224
5,GCGAACAA,0.143
6,GCGTCTCA,0.00483
7,ACCGCCCA,-0.216
8,AAGAGACA,0.0585
9,AACAGGGC,-0.103
10,ACCTACTA,0.138
11,TTACCGAA,0.156
12,TGATATCA,0.426
13,ATTATGCG,0.217
14,ATAGGATC,-0.103
15,ACTGTGAG,0.0126
16,CTATCACA,0.0487
17,GCTTACCA,0.124
18,CAAACCTA,-0.0463
19,AGCATTCC,-0.0762
20,CTTTTTTA,0.161
21,CAACATAG,-0.00641
22,AGCTATAA,0.0927
23,CGGGGAAG,-0.125
24,ATGAGCAC,-0.0166
25,ACGTGAAG,0.0251

row,Sequence,PBM E-score
1,CCACGTAC,-0.0887
2,CAGCGAGA,-0.193
3,AAAAATCC,0.0838
4,GATCCAGC,-0.143
5,ATTCTGGC,0.025
6,AAAGAAAC,0.15
7,GGCCTAAC,-0.142
8,CAACTGCC,0.0713
9,GCTAGGGA,-0.217
10,ATCCACCC,-0.236
11,TCAGTGAA,-0.00204
12,ACCTGGCG,-0.241
13,CCATGATC,-0.113
14,ACTGATTG,-0.00763
15,AACCTATT,0.0548
16,AGGGAACG,-0.184
17,CCCTAAGA,-0.214
18,CCAAGACC,-0.183
19,ATCGTTCA,0.0569
20,AGATATAA,0.153
21,CTTTTTCA,0.0172
22,CTAAAGAC,-0.0173
23,GAATTCAA,0.16
24,GGCATCCA,-0.213
25,CCGAGGTA,-0.27

row,Sequence,PBM E-score
1,GGTTAGCA,-0.111
2,AAAAATGC,0.101
3,GAAGCTTC,-0.297
4,CTATTCGA,0.0201
5,CTTGCCGC,-0.0174
6,CAAAGTCA,0.072
7,AGATGCAC,-0.148
8,AAGTATTG,0.134
9,CCCAGTTC,-0.0847
10,GGAGCCGA,-0.16
11,TATTTGCA,0.183
12,TGTCCACA,-0.0456
13,ACACTGAT,0.0166
14,GTGTTTGA,0.235
15,GCTCCGAA,-0.0443
16,AGTATTCC,0.0547
17,CAGCACTA,-0.18
18,AATCTTCA,0.243
19,CGACCCAC,-0.31
20,AGGAAGCC,-0.171
21,AAGCATTG,-0.177
22,GAACGGAC,-0.125
23,AGGAGATC,-0.125
24,AGCCTTAA,-0.0543
25,AAGGGTAC,-0.0378

row,Sequence,PBM E-score
1,AACAAGTG,-0.0672
2,GTGGAGCA,-0.253
3,CATCTGAC,-0.0499
4,CTACTTAC,0.127
5,AATTCTGT,0.0776
6,GCCGAACC,-0.12
7,AACAATTA,0.302
8,GGTGGGAC,-0.298
9,AACTATCC,-0.194
10,AGCTATGC,-0.0507
11,CAATGGCA,-0.0216
12,CCAGTACC,-0.138
13,GAGTAGTA,0.0811
14,CCTACCCG,-0.167
15,CACATAGC,-0.0333
16,AGCCGGGG,-0.292
17,CGATCGAA,-0.0187
18,ATGGCGCA,0.0754
19,AATCCGCG,-0.00075
20,ACTATTTA,0.0648
21,GGTGTCCA,-0.159
22,ACTGAAAG,0.102
23,CCCTTGGA,-0.037
24,CCAGCGTA,-0.161
25,GCGTTTCA,-0.00465

row,Sequence,PBM E-score
1,CGTTACAC,0.0658
2,ATTACACC,0.089
3,CTACGCAC,-0.0813
4,GAGCGGGC,-0.172
5,AGGATGAA,-0.0458
6,ATGGGCAC,0.105
7,GCGCTCAC,-0.0942
8,ACAATGGG,0.0198
9,CGTCTGTA,0.0257
10,AGTATAAA,0.301
11,CCCGCGTA,-0.0745
12,TACCGGAA,-0.102
13,CTCGGTAC,-0.292
14,CCCGACAA,0.0133
15,CTAGGACC,-0.36
16,AGTAGAGA,0.0665
17,ACAGATCG,-0.00844
18,CTGCACGC,-0.263
19,AAGCCTAG,-0.0756
20,TGAGACCA,0.0312
21,ATCTGTTG,-0.0928
22,AGCTGCGG,-0.0814
23,GCGCTATA,0.0108
24,CACGTTAA,0.0603
25,GAAACCCA,0.0732

row,Sequence,PBM E-score
1,CTTAACAA,0.151
2,AGTCCCGG,-0.319
3,AAAGCTCA,0.0148
4,AGACAATC,0.11
5,AGAATCAC,0.15
6,CCACGTCG,-0.196
7,GCTTACTA,0.0286
8,ACAACGGG,0.00417
9,CGACTAGA,-0.184
10,CCAGGCTA,-0.407
11,ACTCACCG,0.0446
12,CGGAATCC,-0.227
13,CTCGTGCA,-0.103
14,CGCGATAC,-0.0135
15,AATCCATA,0.0862
16,CGTAGGAC,-0.146
17,GACACAAA,0.249
18,CCTTTCTA,0.116
19,ACAAGAAA,0.237
20,ACCAGGAC,-0.0872
21,AGGCGAGA,-0.16
22,AGAATGAG,-0.0205
